Screen size: about 340,000 compounds; about 6,900 (2%) were called active. Cut-off read from the data, not from the text of the source: active = inhibition above about 30%; inactive = below that, where a call was filed. This is a selection; strong and weak results do not stand in their true shares. The source gives no active or inactive call for entries shown without one.

We go through 95 molecules from PubChem BioAssay AID485344 (National Center for Advancing Translational Sciences (NCATS), 2010).

The assay concerns the target D(2) dopamine receptor (Homo sapiens) (UniProt P14416). Briefly: HTS Assay for Allosteric Antagonists of the Human D2 Dopamine Receptor: Primary Screen for Antagonists. Note: 0% is about no effect. The following applies: HEK293 TREx D2 cells, calcium flux, dopamine EC80; at 10 µM; stronger effect = higher value. The procedure, abridged: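 Antagonism is scored as inhibition of an EC80 dopamine-evoked calcium signal in a force-coupled, tetracycline-inducible HEK293 T-REx D2 line, with compound present 180 s before agonist.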
UniProt P14416, sequence (P14416 whole entry, looked up): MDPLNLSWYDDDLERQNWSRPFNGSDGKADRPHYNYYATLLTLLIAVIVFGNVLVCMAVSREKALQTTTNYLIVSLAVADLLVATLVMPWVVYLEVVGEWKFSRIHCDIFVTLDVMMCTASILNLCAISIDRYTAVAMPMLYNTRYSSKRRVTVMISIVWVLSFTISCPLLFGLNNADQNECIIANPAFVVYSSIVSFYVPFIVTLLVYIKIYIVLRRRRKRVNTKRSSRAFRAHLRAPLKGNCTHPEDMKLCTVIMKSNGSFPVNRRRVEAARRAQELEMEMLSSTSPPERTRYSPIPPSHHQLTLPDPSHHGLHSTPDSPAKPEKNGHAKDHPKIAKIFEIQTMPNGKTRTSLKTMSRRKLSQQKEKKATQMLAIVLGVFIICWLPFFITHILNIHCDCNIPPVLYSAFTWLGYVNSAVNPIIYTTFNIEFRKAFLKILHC
Background: A change in cytosolic calcium serves as a functional read-out for many receptors and channels.
As for `Oc1ccc(NCc2ccc(OCc3ccccc3Cl)cc2)cc1`, the inhibition was -13.7%. To `N#C/C(=C\c1c(Oc2ccc(Br)cc2)nc2ccccn2c1=O)c1nc2ccccc2s1` belongs 20.6%; to `COC(=O)c1cccc(NC(=O)Nc2cc(C(=O)NCc3cccc(F)c3)ccc2N2CCCC2)c1`, 22.1%; to `Cc1ccc(Cn2c(CCCNC(=O)C3CCCCC3)nc3ccccc32)cc1`, -7.12%. In the case of `O=C(NC1CCCCC1)c1ccc(CSc2nc3cccnc3n2Cc2ccccc2F)cc1` it was 13.1%; in that of `O=C(Cn1ncc2c(Cl)cccc21)NCc1cccc(Br)c1`, 1.25%. In the case of `Cc1ccc(N2CC(NC(=O)C(=O)c3c[nH]c4ccccc34)CC2=O)cc1` (stereo not given) it was -24.8%. Consider `COc1ccccc1OCC(=O)NCC1(N(C)C)CCCCC1`, for which the inhibition was -4.24%. In the case of `CC(C)CCNC(=O)c1ccc2c(c1)N(Cc1ccccc1F)C(=O)c1ccccc1S2=O` (stereo not given) it was 5.34%; in that of `CC(=O)c1c(C)[nH]c(C(=O)COC(=O)C2CC2)c1C`, active: 32.4%.

For the molecule `CCOc1cc2c(cc1OCC)C(c1c(F)cccc1Cl)CC(=O)N2` (stereo not given), the inhibition turned out to be 22.3%.

`Nc1nonc1/C(=N/O)N1CCN(CCO)CC1`: the inhibition was active: 51.1%. To `O=C(NCCc1csc2nc(-c3ccc(F)cc3)nn12)c1ccco1` belongs -12%. Turning to `Cc1cccc(NC(=O)Cn2c(C(F)(F)F)nc3ccccc32)c1C`, the inhibition came to 0.17%. In the case of `CCOC(=O)c1c(S(=O)(=O)N2CCC(C(=O)N3CCN(c4cc(C)ccc4C)CC3)CC2)c(C)n(C)c1C` it was -9.21%; in that of `Cc1sc2c(c1C)c(=O)n(-c1ccc(Cl)cc1)c(=O)n2Cc1c(F)cccc1Cl`, -2.91%; in that of `COc1cc(C2C(C(=O)Nc3ccccc3)=C(C)Nc3nc(SCc4ccccc4F)nn32)cc(OC)c1OC` (stereo not given), -6.68%. In the case of `Cc1ccc(-c2cc(C(=O)N3CCN(c4ccccc4)CC3)c3ccccc3n2)cc1C` it was -4.96%; in that of `COC(=O)c1cc(NC(=O)CCc2c(C)nc3cc(-c4ccccc4)nn3c2C)cc(C(=O)OC)c1`, 7.57%; in that of `CC1CCN(S(=O)(=O)c2cc(C(=O)Nc3ccc(Br)cc3F)n(C)c2)CC1`, 2.36%. In the case of `CCOc1ccccc1CNS(=O)(=O)c1csc(C(N)=O)c1` it was 2.76%; in that of `CCN(CC)S(=O)(=O)c1ccc2c(c1)N(CC(=O)N1CCN(c3cc(Cl)ccc3C)CC1)C(=O)CO2`, 8.54%; in that of `CCc1ccccc1N1CC(c2nnc(NC(=O)c3ccco3)s2)CC1=O` (stereo not given), 3.57%.

Turning to `CC(=O)OCc1cnc(C)c2oc(=O)c(C(=O)Nc3ccc(F)cc3C)cc12`, the inhibition was -11.4%. For the molecule `CC(=O)Nc1nonc1-c1nnc(SCC(=O)Nc2ccccc2Cl)n1C`, the inhibition was found to be 6.04%. To `COc1cc(NC(=O)c2cc(-c3ccccc3O)no2)cc(OC)c1OC` belongs -9.73%; to `CCOc1ccc(CNC(=O)C2CCN(C3=NS(=O)(=O)C(c4ccc(C)cc4)=C3CC)CC2)cc1`, 16.5%; to `COc1ccc(C2CC(=O)c3cc(-c4nc(-c5ccc(Cl)cc5)cs4)c(=O)[nH]c3C2)cc1` (stereo not given), 9.92%.

`CC(C)NC(=O)Cn1ncn2c(cc3cc(F)ccc32)c1=O`: the inhibition was -4.98%. In the case of `Cc1ccccc1N1CCN(CCC(=O)Nc2ccc(F)cc2)CC1` it was active: 78.1%; in that of `Clc1cccc(-c2nnc(CN3CCN(c4ccccn4)CC3)o2)c1`, -21.4%.

With `Cc1cc(S(=O)(=O)Nc2cc3c(cc2N2CCOCC2)n(C)c(=O)n3C)ccc1F`, the inhibition is -21.9%. Take `COc1ccc(NC(=O)C(CC(C)C)NC(=O)C2CCCCC2)c(OC)c1` (stereo not given): the inhibition came out at 4.75%.

Consider `CCc1nc2ccc(C(=O)NCCc3ccc(SC)cc3)cc2nc1CC`, for which the inhibition turned out to be 19.4%. Regarding `CCN(C(=O)CCS(=O)(=O)c1cccc2nsnc12)c1cccc(C)c1`, the inhibition is 5.79%.

With `O=C(Nc1nc2n(n1)C(c1ccc(F)cc1)C=C(c1ccc(Cl)cc1)N2)c1ccco1` (stereo not given), the inhibition is 24%. In the case of `CCN(C(=O)c1cc2c(s1)-c1c(C)cccc1OC2)c1cc(C)ccc1C` it was -3%; in that of `CCOc1ccc2oc(=O)cc(CN3CCN(c4ccc(OC)cc4)CC3)c2c1`, -5.74%; in that of `COc1ccc(OC)c(NC(=O)Cn2c(=O)oc3cc(S(=O)(=O)NCc4ccccc4)ccc32)c1`, 12.7%. To `CC1(C)Cc2c(c(N3CCOCC3)nc3sc(C#N)c(N)c23)CS1` belongs active: 38.1%. Regarding `O=C(NCC12CC3CC(CC(C3)C1)C2)c1cc2nc(-c3ccc(Cl)cc3)cc(C(F)(F)F)n2n1`, the inhibition was found to be 7.13%. To `Cc1cccc(C)c1OCC(=O)Nc1nonc1-c1ccc(Br)cc1` belongs -7.22%; to `COc1ccc(CCNC(=O)Cc2c(C)c3cc(OC)c(OC)cc3oc2=O)cc1`, 1.18%; to `Cc1ccc(C(=O)Nc2ccc(-n3c(C)nc4ccccc4c3=O)cc2)cc1[N+](=O)[O-]`, -5.86%.

`CNC(=O)c1ccc(Nc2nnc(-c3ccc(C)c(S(=O)(=O)NC(C)(C)C)c3)c3ccccc23)cc1`: the inhibition is 7.96%. To `CCc1ccc(-n2c(=O)c3cccnc3n2CC(=O)NCc2ccc(F)cc2)cc1` belongs -3.22%. In the case of `O=C(NCc1cccc(F)c1)c1ccc(CS(=O)c2ccccc2Cl)o1` (stereo not given) it was 1.28%; in that of `CCOC(=O)N1CCc2c(sc3c2c(=O)n(Cc2ccccc2)c(=O)n3CC(=O)Nc2c(C)cccc2C)C1`, 1.81%. To `COc1ccccc1NC(=O)CCN1CCC(C(N)=O)CC1` belongs -7.38%; to `Cn1c(=O)c(=O)n(C)c2cc(S(=O)(=O)N3CCN(c4ccccc4F)CC3)ccc21`, -11.5%; to `CC(=O)c1cc(-c2ccccc2)n(CC(=O)NC2CCCCCC2)c1C`, 7.79%. As to `O=C(Nc1cccc(C(F)(F)F)c1)c1noc2c1CCc1ccccc1-2`, the inhibition is -15.8%. To `O=C(NCCc1ccc(Cl)cc1)c1cccn1-c1nnc(N2CCCCC2)s1` belongs 6.44%. In the case of `O=C(Cn1c(=O)n(Cc2cccs2)c(=O)c2cccnc21)Nc1ccccc1F` it was -3.85%. To `Cc1cc(O)c(C(c2cccc(F)c2)N2CCC(C)CC2)c(=O)n1Cc1ccco1` (stereo not given) belongs -11.1%; to `CN(C1CCCCC1)S(=O)(=O)c1ccc(C(=O)Nc2sc3c(c2C(N)=O)CC(C)(C)NC3(C)C)cc1`, 26.9%.

`COc1ccc(N2CCN(C(=O)CSCc3nc(-c4ccccc4Cl)oc3C)CC2)cc1`: the inhibition is 8.35%. Regarding `CCc1nc(-c2cc(S(=O)(=O)N3CCN(c4ccc(F)cc4)CC3)ccc2OC)no1`, the inhibition was -3.65%. On to `COc1ccccc1CNC(=O)c1cccn1-c1nnc(N2CCCC2)s1`, for which the inhibition amounted to 4.71%. To `Cc1cccc(NC(=O)Cn2nc(-c3ccc(Cl)cc3)c3ccccc3c2=O)c1` belongs 23.9%; to `O=C(CSc1ccc2nc(-c3ccccc3)cn2n1)Nc1ccccc1C(F)(F)F`, 2.46%. In the case of `Cc1cccc(NC(=O)C(=O)c2cc(C)n(-c3ccccc3)c2C)c1C` it was -25.7%.

Take `O=C(Nc1cccc(-c2nc3ncccc3o2)c1)c1ccc(-c2cccc(Cl)c2Cl)o1`: the inhibition stood at 20.1%.

For the molecule `CCOc1ccc(N2CC(C(=O)Nc3ccc(S(=O)(=O)Nc4nccs4)cc3)CC2=O)cc1` (stereo not given), the inhibition is active: 31.9%.

For the molecule `CCOc1cccc2cc(-c3nc4sc(C(=O)Nc5ccc(C)cc5)c(C)c4c(=O)[nH]3)c(=O)oc12`, the inhibition was -16.6%.

Regarding `COc1ccc(C(=O)NCC(c2cccnc2)N2CCN(c3ccc(F)cc3)CC2)cc1` (stereo not given), the inhibition was 22%.

`O=C(NCC(c1ccc(Cl)cc1)N1CCCCC1)c1ccc(F)cc1` (stereo not given): the inhibition was -21.9%. In the case of `Brc1cccc(OCCCNC2CCCC2)c1` it was active: 57.6%; in that of `COc1cccc(-c2cc(C(F)(F)F)nc(-n3nc(C)c(Br)c3C)n2)c1`, 0.195%; in that of `Nc1nc(N)c(S(=O)(=O)c2ccccc2)c(Nc2ccc(Br)cc2)n1`, 11.2%. In the case of `O=C(N/N=C/c1cccc(Br)c1)C1CC(=O)N(c2ccccc2)C1` (stereo not given) it was active: 35.4%. To `COc1ccc(-c2nc3sc(CCNC(=O)C(=O)Nc4cc(C)cc(C)c4)c(C)n3n2)cc1` belongs 0.979%. For the molecule `COc1ccc(N2CCN(C(=O)Cn3ncc4c3-c3cc(C)ccc3OC4)CC2)cc1`, the inhibition is -7.27%. To `Cc1ccc(NC(=O)c2cccc(NC(=O)N3CCSc4ncccc43)c2)cc1Cl` belongs -5.8%. Take `CCN(C(=O)c1nn(-c2ccc(OC)c(Cl)c2)c(=O)c2c1c1ccccc1n2C)c1cc(OC)ccc1OC`: the inhibition is -11.2%. To `CCOc1ccc(NC(=O)CN(C)S(=O)(=O)c2ccc3c(c2)c(=O)n(C)c(=O)n3C)cc1` belongs 11.2%; to `Cc1ccc(C(=O)NCC(c2cccs2)S(=O)(=O)c2cccs2)cc1C` (stereo not given), -9.75%; to `O=C(NCc1ccc2c(c1)CCN2C(=O)c1ccncc1)c1cccc(Cl)c1`, -21.7%.

For the molecule `COc1ccc(NC(=O)c2sc3nc(C)c(C(=O)Nc4ccc(C)cc4C)c(-c4ccc(Cl)cc4)c3c2N)cc1`, the inhibition is -11.2%. To `Cc1oc(-c2ccccc2F)nc1CS(=O)(=O)CC(=O)N1CCN(c2cccc(C(F)(F)F)c2)CC1` belongs 18.2%. To `O=C(Nc1ccc(S(=O)(=O)N2CCC(c3nc4ccccc4s3)CC2)cc1)c1ccc(F)cc1` belongs -2.95%.

`Cc1ccc(NC(=O)C2Cc3ccccc3N2C(=O)c2ccccc2)cc1Cl` (stereo not given): the inhibition was -26.6%.

In the case of `Cc1cc(C)c(S(=O)(=O)NCCc2cc3c(C)ccc(C)c3[nH]c2=O)c(C)c1`, the inhibition was 4.97%. With `CCOC(=O)N1CCC(NCCNC(=O)c2ccc(Cl)cc2)CC1`, the inhibition was active: 59.1%. To `Cc1ccc(C)c(-n2nnc(-c3nc(-c4ccc(Cl)cc4)no3)c2N)c1` belongs 17.7%. `CCCC(=O)NCCc1nc2ccccc2n1Cc1c(F)cccc1Cl`: the inhibition was -3.96%.

Take `Cc1ccc(N(CC(=O)NCc2ccc(F)cc2)S(=O)(=O)c2cccs2)cc1`: the inhibition was active: 45.6%. To `CC(=O)c1ccc(NC(=O)CSc2cn(CC(=O)N3CCCCC3)c3ccccc23)cc1` belongs -7.71%; to `CCc1ccc(NC(=O)C2CCN(c3nnc(-n4c(C)ccc4C)s3)CC2)cc1`, 11.3%; to `CCOc1ccc(-c2cn(-c3ccc(OC)cc3)c(SCC(=O)Nc3ccccc3Cl)n2)cc1`, 6.72%.

`COc1ccc(F)cc1S(=O)(=O)NCCc1csc(-c2ccc(Cl)cc2)n1`: the inhibition is -3.87%. Turning to `CCC(=O)Nc1sc2c(c1C(=O)Nc1ccc(OC)cc1)CCC(C(C)(C)C)C2` (stereo not given), the inhibition was 0.925%. To `c1ccc(-c2cn(-c3ccccc3)c3ncnc(N4CCN(c5ccccc5)CC4)c23)cc1` belongs 18%; to `COc1ccc(OC)c(NC(=O)CSc2n[nH]c(-c3ccccc3Cl)n2)c1`, 7.72%. On to `Cc1cc(C)cc(Oc2c(C(F)(F)F)oc3c(CN4CCCC(C)C4)c(O)ccc3c2=O)c1` (stereo not given), for which the inhibition is 10.8%.

As usually defined, the inhibition is the change of the read-out against control, counted positive when it falls.
